Experimental data: the supplement of paper PMC10126150
Values marked as one replicate rest on one cluster of the flow cell; about a third of the high ones do not repeat.

system: ATP; test: switch fluorescence ratio, 500 uM ATP over buffer (Cy3 cluster intensity, sum of 5 cycles each) (fold (ratio)); higher = stronger signal-on switching upon ATP binding; sequences stand for … in TCGTCGGCAGCGTCAGATGTGTATAAGAGACAGTTTTTTTTTTTTTTTTTTTTTTTTT…TC; settings: aptamer strand: ATP DNA aptamer (quencher-CACCTGGGGGAGTATTGCGGAGGAAGG + anchor), 100 nM annealed; ATP concentration: 500 uM; one replicate
In short: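 Imaging in selection buffer was followed by imaging after 15 min with 500 uM ATP at 22 °C, for Cy3-labelled switching-strand clusters annealed to 100 nM quencher-labelled ATP aptamer on a modified Illumina MiSeq flow-cell. Five of these buffer/ATP cycles ran, separated by NaOH stripping and re-annealing. The fluorescence ratio per cluster is summed target-cycle over summed buffer-cycle Cy3 intensity, averaged per switch-domain sequence; clusters outside 100-1000 RFU were removed.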
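Further: ATP exposure 15 min at 22 °C before imaging.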

| Sequence | switch fluorescence ratio |
| --- | --- |
| ACATGTTCAA | 0.98 |
| ACATTAACCG | 1.05 |
| ACATTACGTC | 1.29 |
| ACATTAGCA | 1.04 |
| ACATTAGGTG | 1.34 |
| ACATTATAGG | 1.02 |
| ACATTATGCC | 1.07 |
| ACATTATGCG | 1.02 |
| ACATTCTCAG | 1 |
| ACATTCTCTA | 0.968 |
| ACATTGCAAA | 0.968 |
| ACATTGGCAT | 0.967 |
| ACATTTAAAT | 0.93 |
| ACATTTGAGG | 0.994 |
| ACCAACAAAC | 1.2 |
| ACCAACGTTG | 1.01 |
| ACCAATCCCT | 0.952 |
| ACCACACT | 1.32 |
| ACCACGGAGG | 1.03 |
| ACCACGGCGC | 1.11 |
| ACCACTATG | 1.06 |
| ACCAGAAC | 1.04 |
| ACCAGAGCGA | 1.24 |
| ACCAGAGGGG | 0.993 |
| ACCAGCCCCT | 1.02 |
| ACCATAAACT | 1.12 |

| Sequence | switch fluorescence ratio |
| --- | --- |
| ACCATAGTGA | 1.03 |
| ACCATATTGG | 1.01 |
| ACCATCAGAG | 1 |
| ACCATCGGTA | 1.03 |
| ACCATTTCGT | 0.949 |
| ACCCAACCTG | 1.14 |
| ACCCAGAGGA | 1.04 |
| ACCCAGGCGT | 3.96 |
| ACCCCGGGGG | 1.01 |
| ACCCCTGCCC | 1.17 |
| ACCCGATCTG | 0.998 |
| ACCCGCCGAC | 3.43 |
| ACCCGCGTTG | 1.1 |
| ACCCGGATC | 1.08 |
| ACCCGGGTCA | 1.01 |
| ACCCGGTGCA | 1.69 |
| ACCCGTGTTC | 1.05 |
| ACCCGTTTAA | 1.06 |
| ACCCTAGTGT | 1.13 |
| ACCCTATTTA | 1.01 |
| ACCCTCCAAA | 1.48 |
| ACCCTCCCGG | 2.57 |
| ACCCTTTTCA | 0.981 |
| ACCGAAGAGA | 1.01 |
| ACCGAAGTGT | 0.969 |
| ACCGAGAGAT | 1.04 |

| Sequence | switch fluorescence ratio |
| --- | --- |
| ACCGAGGTAG | 1.02 |
| ACCGATATGC | 1.25 |
| ACCGCAACAT | 3.56 |
| ACCGCAGTAA | 3.51 |
| ACCGCGTTGG | 1.03 |
| ACCGCTACGC | 1.68 |
| ACCGGAATGC | 1.17 |
| ACCGGGCCTC | 1.02 |
| ACCGGGCTTC | 0.995 |
| ACCGGTAACT | 1 |
| ACCGGTTGCA | 1.04 |
| ACCGTGCTAC | 2.05 |
| ACCGTGGCGG | 0.971 |
| ACCGTGTTGG | 1 |
| ACCGTTAGAC | 1.36 |
| ACCGTTGTTG | 1.01 |
| ACCTACCAAG | 1.3 |
| ACCTACGTCG | 1.4 |
| ACCTACTATA | 1.26 |
| ACCTACTTCA | 1.2 |
| ACCTAGTTCA | 1.02 |
| ACCTATGGGC | 0.99 |
| ACCTATTAAG | 1.02 |
| ACCTATTTTG | 1.07 |
| ACCTCACTTA | 1.25 |
| ACCTCCTATT | 1.02 |

| Sequence | switch fluorescence ratio |
| --- | --- |
| ACCTCGCCTT | 1.1 |
| ACCTCTTAGT | 0.973 |
| ACCTCTTGTT | 1 |
| ACCTGCAGAA | 1.04 |
| ACCTGGAAGG | 0.961 |
| ACCTGGGTCA | 1.03 |
| ACCTGGTAAC | 1.04 |
| ACCTGGTATG | 1.04 |
| ACCTTAAAGT | 1.08 |
| ACCTTCACTC | 2.1 |
| ACCTTGCCCT | 1.1 |
| ACCTTTCTAG | 1.16 |
| ACCTTTGAAG | 1.06 |
| ACGAAACTCC | 1.11 |
| ACGAACAATT | 1.24 |
| ACGAAGATCT | 1.04 |
| ACGAATGTGA | 1.04 |
| ACGACAGTAG | 1.04 |
| ACGACATGAC | 1.49 |
| ACGACATGCG | 1 |
| ACGACCAATA | 5.61 |
| ACGACGGACC | 1.77 |
| ACGACGTCGA | 1.08 |
| ACGACGTTGG | 1.04 |
| ACGACTATA | 1.17 |
| ACGACTGCGA | 3.08 |

| Sequence | switch fluorescence ratio |
| --- | --- |
| ACGACTGGTG | 1.25 |
| ACGAGAGGCG | 1.03 |
| ACGAGATGCC | 1.03 |
| ACGAGATTTC | 1.02 |
| ACGAGCTCCA | 1.07 |
| ACGAGGACGC | 1.1 |
| ACGAGGGACA | 1.05 |
| ACGAGTACGA | 1.05 |
| ACGAGTCATA | 1.03 |
| ACGATACGTG | 1.12 |
| ACGATCCTAG | 1.02 |
| ACGATGACTC | 1.36 |
| ACGATGGAAA | 0.985 |
| ACGATGGTGT | 1.05 |
| ACGATGTGGC | 1.05 |
| ACGATTCGTG | 0.98 |
| ACGATTTAC | 1.67 |
| ACGCAAATTG | 1.36 |
| ACGCAACCTT | 1.46 |
| ACGCACATCT | 1.37 |
| ACGCACCCAT | 1.45 |
| ACGCACCTGG | 1.68 |
| ACGCACGCTG | 1.55 |
| ACGCACGTTG | 1.31 |
| ACGCCAAATA | 1.31 |
| ACGCCAAATT | 1.03 |

| Sequence | switch fluorescence ratio |
| --- | --- |
| ACGCCAGGGC | 1.1 |
| ACGCCCCAA | 1.27 |
| ACGCCCGAGC | 1.25 |
| ACGCCCGCGT | 1.02 |
| ACGCCTCCGT | 1.92 |
| ACGCCTCTTG | 1.01 |
| ACGCGGTACT | 2.11 |
| ACGCGTCCAT | 1.04 |
| ACGCGTCCTT | 1.01 |
| ACGCTACATC | 1.56 |
| ACGCTATTT | 1.2 |
| ACGCTCAGAT | 1.04 |
| ACGCTCTGGC | 1.07 |
| ACGCTGAGTC | 1.12 |
| ACGCTGCAAT | 3.52 |
| ACGCTTCTAG | 1.03 |
| ACGCTTGCCC | 1.01 |
| ACGGAAAAGC | 1.14 |
| ACGGAACGGA | 1.04 |
| ACGGAAGGCT | 1.02 |
| ACGGAATGGC | 1.26 |
| ACGGAATTCT | 1.09 |
| ACGGACACCC | 1.48 |
| ACGGACGGCG | 1.01 |
| ACGGAGGACA | 1.05 |
| ACGGATCATG | 1 |

| Sequence | switch fluorescence ratio |
| --- | --- |
| ACGGATGACC | 1.04 |
| ACGGATGAGG | 1.01 |
| ACGGCAGTT | 0.967 |
| ACGGCATAGT | 1.1 |
| ACGGCCACT | 1.25 |
| ACGGCGAAAC | 1.57 |
| ACGGCGAAAG | 1.02 |
| ACGGCGAGC | 1.01 |
| ACGGCGATG | 0.987 |
| ACGGCGGA | 0.996 |
| ACGGCGGAA | 1.08 |
| ACGGCTGGTC | 0.961 |
| ACGGGCCTGT | 1.04 |
| ACGGGCGGTT | 0.977 |
| ACGGGGACGA | 1.02 |
| ACGGGGTCTC | 0.983 |
| ACGGGTCTAG | 1.01 |
| ACGGTACATG | 1.35 |
| ACGGTAGAAG | 1.09 |
| ACGGTATCCA | 1.15 |
| ACGGTCCGTT | 1.01 |
| ACGGTCTGGT | 1.02 |
| ACGGTGACAC | 1.14 |
| ACGGTTCATC | 0.985 |
| ACGGTTTTGG | 0.979 |
| ACGTAGCAGT | 4.56 |

| Sequence | switch fluorescence ratio |
| --- | --- |
| ACGTAGGACT | 1.03 |
| ACGTAGTTTT | 1.01 |
| ACGTATATGG | 1.16 |
| ACGTATCACC | 1.2 |
| ACGTATCAGT | 1.07 |
| ACGTATGGG | 1.05 |
| ACGTATTTG | 1.1 |
| ACGTCACGCC | 1.59 |
| ACGTCCACTT | 1.76 |
| ACGTCCAGTC | 0.991 |
| ACGTCCGAT | 1.05 |
| ACGTCCGGCC | 1.08 |
| ACGTCGAATG | 0.986 |
| ACGTCGATGT | 0.951 |
| ACGTCGGTC | 1.01 |
| ACGTCGGTCG | 1.02 |
| ACGTCTAGAC | 1.05 |
| ACGTCTGCTA | 1.08 |
| ACGTCTGGAA | 1.03 |
